Measured values taken from the BET-seq Pho4 binding data (Le et al. 2018).
Some of the results follow. These are noisy estimates, calculated here from bound and input reads.

Each sequence was assayed against T1, Pho4 (S. cerevisiae) (UniProt P07270) (assay: relative binding free energy (BET-seq); higher = weaker binding). Conditions: reference: library average.
T1 sequence: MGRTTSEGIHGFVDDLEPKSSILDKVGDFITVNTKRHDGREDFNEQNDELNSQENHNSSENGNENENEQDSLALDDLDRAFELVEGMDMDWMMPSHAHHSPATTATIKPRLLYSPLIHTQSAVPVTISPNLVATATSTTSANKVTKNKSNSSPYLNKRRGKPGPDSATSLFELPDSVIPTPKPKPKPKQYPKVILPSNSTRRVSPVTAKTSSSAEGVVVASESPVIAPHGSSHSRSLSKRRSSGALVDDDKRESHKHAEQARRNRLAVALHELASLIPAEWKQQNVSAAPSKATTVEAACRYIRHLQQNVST

Sequence	relative binding free energy [kcal/mol]
ACTTTCACGTGATTTT	0.24
TAATTCACGTGTTGGA	0.25
ATGGACACGTGTGGGC	0.08
TGTGACACGTGAGAGT	0.14
ATTTGCACGTGACCGG	0.05
GGGAACACGTGTGTAA	0.1
GTCATCACGTGGAGGG	0.13
GTCGTCACGTGTGGGT	0.1
TCGTGCACGTGGTGGG	-0.07
CGGGGCACGTGGGTTT	-0.2
TTTGTCACGTGATTAC	0.29
TTGGACACGTGAAGTG	0.29
AGGGGCACGTGGACCT	0
TCAGTCACGTGATTTG	0.31
TAGGTCACGTGTGACG	0.16
CGAGGCACGTGCAAGG	-0.01
ATGAACACGTGGGATG	0
GTAGTCACGTGGCGGA	0.05
GGGAACACGTGAGTTT	0.53
CAAAGCACGTGTGGGG	-0.16

Sequence	relative binding free energy [kcal/mol]
AAGTTCACGTGTTGCG	0.34
AAGCGCACGTGAGTGT	0.1
GGTTACACGTGGTTTG	0.15
ATATTCACGTGAGCGT	0.13
TTGGACACGTGGCTTT	0.06
AATGTCACGTGTAGTG	0.05
TTATACACGTGATATA	0.28
ACTATCACGTGGGGGG	0.01
TGAGTCACGTGTCAGT	0.12
GTAAGCACGTGGCTGG	-0.1
GGGGTCACGTGTTATC	0.21
AGACACACGTGGTTGG	-0.06
TTTAGCACGTGCGATG	-0.15
GCAGGCACGTGGCGGG	-0.22
GTTTCCACGTGGTAAG	0.17
GGGATCACGTGTCATG	0.12
TTTTACACGTGGGCCT	0.11
ACGTGCACGTGGGGTA	-0.27
TTGGTCACGTGAACGT	0.28
GATTGCACGTGTTTGT	-0.01

Sequence	relative binding free energy [kcal/mol]
AGTTTCACGTGAGAGT	0.48
TTAGCCACGTGTTTTA	-0.05
CGTTACACGTGAGGGC	0.33
GAGGCCACGTGGCGGG	-0.06
ATGCACACGTGTGTGG	0.01
AGTGCCACGTGTATTT	-0.09
GATTCCACGTGAGGTT	0.35
AAGGTCACGTGTTATG	-0.06
AGTTACACGTGTCGGG	0.17
AACTGCACGTGAAGGG	0.22
ATTTACACGTGCGGGT	0.14
AGGACCACGTGGCGTG	0.01
TAAGGCACGTGGGGAG	-0.37
ATGTTCACGTGGTATG	0.21
AAGGGCACGTGATGTT	0.08
AGCGGCACGTGGTAGT	-0.2
ATAATCACGTGGGGAG	0.04
AGTTCCACGTGATTAG	0.23
